Assay results: article PMC7826336, “Kallikrein directly interacts with and activates Factor IX, resulting in thrombin generation and fibrin formation independent of Factor XI” (Proceedings of the National Academy of Sciences of the …, 2021)

Biological target: T1, kallikrein (PKa) (UniProt P03952 20-390; P03952 391-638)
T1 construct: plasma kallikrein heavy chain (four apple domains), cut product of prekallikrein; plasma kallikrein light chain (protease domain), cut product of prekallikrein; Amine-coupled to the SPR chip; also called plasma kallikrein; source: bought: Enzyme Research Laboratories
T1 sequence (P03952 20-390, chain 1 of 2): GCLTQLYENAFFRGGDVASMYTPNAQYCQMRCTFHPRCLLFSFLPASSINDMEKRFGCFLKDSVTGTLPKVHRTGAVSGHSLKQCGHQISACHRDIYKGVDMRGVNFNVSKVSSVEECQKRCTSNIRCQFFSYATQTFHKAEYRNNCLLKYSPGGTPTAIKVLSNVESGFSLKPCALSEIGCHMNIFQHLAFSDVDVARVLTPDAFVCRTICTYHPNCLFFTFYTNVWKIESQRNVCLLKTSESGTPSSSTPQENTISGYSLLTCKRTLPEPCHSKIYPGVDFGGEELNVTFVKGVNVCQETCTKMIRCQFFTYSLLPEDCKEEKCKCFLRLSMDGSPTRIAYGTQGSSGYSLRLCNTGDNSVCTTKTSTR
T1 sequence (P03952 391-638, chain 2 of 2): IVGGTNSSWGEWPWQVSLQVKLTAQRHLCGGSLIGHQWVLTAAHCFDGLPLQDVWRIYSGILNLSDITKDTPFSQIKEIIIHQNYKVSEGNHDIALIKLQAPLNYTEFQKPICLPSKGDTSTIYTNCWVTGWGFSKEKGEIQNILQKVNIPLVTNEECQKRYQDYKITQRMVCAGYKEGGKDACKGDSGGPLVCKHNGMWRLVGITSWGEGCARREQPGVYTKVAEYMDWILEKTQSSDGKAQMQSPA
Assay: SPR; Pioneer biosensor, COOHV chip; PMSF-treated PK (FC-1) or PKa (FC-3) immobilised by amine coupling; analytes diluted to 250 nM, OneStep gradient injection, 30 uL/min, dissociation 600 s; 22 °C; 10 mM Hepes, 140 mM NaCl, 1.5 mM CaCl2, 40 uM ZnCl2 pH 7.4; simple ka/kd 1 or 2 binding site model
Details: both partners purified

B1: Factor IX (FIX) (natural protein)
chain: not shown
notes: coagulation factor IX, zymogen; also called zymogen FIX; source: bought: Haematologic Industries
  Kd: 1.7 nM
  koff: 0.000228 s⁻¹
  kon: 134000 M⁻¹ s⁻¹
